# According to patent US20230322724A1, “HETEROCYCLIC COMPOUNDS AS CBP/EP300 BROMODOMAIN INHIBITORS” (AURIGENE ONCOLOGY LIMITED, priority 2020, published 2023):
# Some results were stated once for a whole list of compounds, not compound by compound.
# Molecular target: T1, recombinant CREBBP bromodomain (Homo sapiens, UniProt Q92793)
# T1 construct: recombinant CREBBP bromodomain obtained from BPS Bioscience, USA; purchased BPS Bioscience, USA
# Experiment: CBP TR-FRET displacement assay
# Format: binding
# Conditions: dose-response, read-out: IC50 (group A, B, C)
# Method: The potency of compounds to inhibit CREBBP enzyme was tested in a TR-FRET displacement assay using recombinant CREBBP bromodomain obtained from BPS Bioscience, USA. The assay buffer was 50 mM HEPES (pH 7.5), 50 mM NaCl, 0.008% Brij 35, 0.01% BSA, 1 mM TCEP. 50 nM of CREBBP & 500 nM of Biotinylated ligand was incubated at room temperature for 30 minutes, the reaction was initiated by adding pre-incubated enzyme ligand mixture to the test compounds. After 60 min incubation, the reaction was stopped by the addition of stop mix containing 1 nM of LANCE Europium-anti-6xHis antibody (Perkin Elmer, USA) and 40 nM of Sure Light Allophycocyanin-Streptavidin (Perkin Elmer, USA). Fluorescence emission of the samples at 665 and 615 nm were measured at an excitation of 340 nm and their ratio was plotted against the compound concentrations to generate dose-response curve. The percent inhibition of the test compounds is calculated using the ratio of enzyme activity controls.
# elected compounds of the present invention were screened in the above-mentioned assay procedures and IC50 values were determined by fitting the dose-response data to sigmoidal curve fitting equation using Graph pad prism software V7.
# T1 sequence (Q92793 1085-1192 limits assumed): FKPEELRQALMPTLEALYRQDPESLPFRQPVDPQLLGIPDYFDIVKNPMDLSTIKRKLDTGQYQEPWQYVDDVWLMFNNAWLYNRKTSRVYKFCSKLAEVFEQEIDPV
row,IC50 [nM],SMILES
1,> 10,CNC(=O)c1ccc(-c2cc3c(cc2C(F)F)N(c2nc(N4CCOCC4)cc4c2cc(C)c(=O)n4C)CCC3)cn1 [Example 203]

# Molecular target: T2, recombinant BRD4 FL bromodomain (Homo sapiens, UniProt O60885)
# T2 construct: fused on or other part: 6xHis tag, inferred from detection with Mab ANTI 6HIS-XL665
# Experiment: BRD4 FL TR-FRET displacement assay
# Format: binding
# Conditions: dose-response, read-out: IC50 (group A, B, C)
# Method: The potency of compounds to inhibit BRD4 FL enzyme was tested in a TR-FRET displacement assay using recombinant BRD4 FL bromodomain obtained In-house. The assay buffer was 50 mM HEPES (pH 7.5), 50 mM NaCl, 500 μM CHAPS. 10 nM of BRD4 FL & 300 nM of Biotinylated Acetyl histone H4 (Lys 5, 8, 12, 16) (Millipore, USA) was incubated at room temperature for 30 minutes, the reaction was initiated by adding the pre-incubated enzyme ligand mixture to the test compounds. After 30 min incubation, the reaction was stopped by the addition of stop mix containing 1 nM of Europium Streptavidin cryptate (Cisbio, USA) and 5 nM of Mab ANTI 6HIS-XL665 (Cisbio, USA) dilutes in assay buffer containing 2.4M Potassium Fluoride. Fluorescence emission of the samples at 665 and 615 nm were measured at an excitation of 340 nm and their ratio was plotted against the compound concentrations to generate dose-response curve. The percent inhibition of the test compounds is calculated using the ratio of enzyme activity controls.
# Selected compounds of the present invention were screened in the above-mentioned assay procedures and IC50 values were determined by fitting the dose-response data to sigmoidal curve fitting equation using Graph pad prism software V7.
row,IC50 [nM],SMILES
1,< 2000,Cc1cc2c(N3CCCc4cc(C5CCOC5)c(C(F)F)cc43)nc(N3CC[C@@H](O)C3)cc2n(C)c1=O (stereo partly drawn) [Example 228]
2,< 2000,"Cc1cc2c(N3CCN(C)c4nc(-c5cnn(C)c5)ncc43)cc(N3CCOCC3)cc2n(C)c1=O [Example 76, 1,3-Dimethyl-5-(8-methyl-2-(1-methyl-1H-pyrazol-4-yl)-7,8-dihydropteridin-5(6H)-yl)-7-morpholinoquinolin-2(1H)-one]"
3,< 2000,"Cc1cc2c(N3CCN(C)c4cc(-c5cnn(C)c5)c(CO)cc43)cccc2[nH]c1=O [Example 58, 5-(7-(Hydroxymethyl)-4-methyl-6-(1-methyl-1H-pyrazol-4-yl)-3,4-dihydroquinoxalin-1(2H)-yl)-3-methylquinolin-2(1H)-one]"
4,> 5000,COc1cc(N2CCN(C)c3cc(C4=CCCC4)c(S(=O)(=O)NC(C)=O)cc32)c2cc(C)c(=O)n(C)c2c1 [Example 110]
5,< 2000,Cc1cc2c(N3CCN(C)c4cc(-c5cnn(C)c5)ncc43)cc(OC3CCOCC3)cc2n(C)c1=O [Example 158]
6,> 5000,Cc1cc2c(N3CCN(C)c4cc(-c5cnn(C)c5)ncc43)cc(OCCN3CCOCC3)cc2n(C)c1=O [Example 128]
7,< 2000,Cc1cc2c(N3CCCc4cc(-c5cnn(C)c5)ncc43)cc(N3CCOCC3)cc2n(C)c1=O [Example 169]
8,> 5000,"CNC(=O)N1CCN(c2cccc3c2cc(C)c(=O)n3C)c2ccc(-c3cnn(C)c3)cc21 [Example 75, 4-(1,3-Dimethyl-2-oxo-1,2-dihydroquinolin-5-yl)-N-methyl-7-(1-methyl-1H-pyrazol-4-yl)-3,4-dihydroquinoxaline-1(2H)-carboxamide]"
9,< 2000,COc1cc(N2CCN(C)c3cc(N4CCN(C(C)=O)CC4)c(C#N)cc32)c2cc(C)c(=O)n(C)c2c1 [Example 23]
10,< 2000,Cc1cc2c(N3CCN(C)c4cc(-c5cnn(C)c5)c(F)cc43)cc(N(C)C)cc2n(C)c1=O [Example 45]
11,< 2000,"Cc1cc2c(N3CCCc4cc(-c5cccn(C)c5=O)c(C(F)F)cc43)nc(C3CCOCC3)cc2n(C)c1=O [Example 235, 5-(7-(difluoromethyl)-6-(1-methyl-2-oxo-1,2-dihydropyridin-3-yl)-3,4-dihydroquinolin-1(2H)-yl)-1,3-dimethyl-7-(tetrahydro-2H-pyran-4-yl)-1,6-naphthyridin-2(1H)-one]"
12,< 2000,COc1cc2c(cc1-c1cnn(C)c1)C(C)CCN2c1nc(C2CCOCC2)cc2c1cc(C)c(=O)n2C (stereo not drawn) [Example 239]
13,> 5000,Cc1cc2c(N3CCN(C)c4cc(-c5cnn(C)c5)ncc43)cc(C3CCOC3)cc2n(C)c1=O (stereo not drawn) [Example 142]
14,< 2000,Cc1cc2c(N3CCCc4cc(-c5cnn(C)c5)c(C(F)F)cc43)cc(N3CC[C@@H](O)C3)cc2n(C)c1=O [Example 177]
15,< 2000,"Cc1cc2c(N3CCN(C)c4cc(-c5cnn(C)c5)c(C#N)cc43)cc(OCC(=O)OC(C)(C)C)cc2n(C)c1=O [Example 3, Tert-butyl 2-((5-(7-cyano-4-methyl-6-(1-methyl-1H-pyrazol-4-yl)-3,4-dihydroquinoxalin-1(2H)-yl)-1,3-dimethyl-2-oxo-1,2-dihydroquinolin-7-yl)oxy)acetate]"
16,< 2000,Cc1cc2c(N3CCN(C)c4cc(-c5cnn(C)c5)c(C#N)cc43)cc(N3CCOCC3)cc2n(C)c1=O [Example 47]
17,< 2000,Cc1cc2c(N3CCCc4cc(-c5cnn(C)c5)c(C(F)F)cc43)nc(N3CCC4(COC4)C3)cc2n(C)c1=O [Example 225]
18,> 5000,"Cc1cc2c(N3CCN(C)c4cc(-c5cnn(C)c5)ncc43)nc(N3C[C@@H]4C[C@H]3CO4)cc2n(C)c1=O [Example 202, 7-((1S,4S)-2-oxa-5-azabicyclo[2.2.1]heptan-5-yl)-1,3-dimethyl-5-(1-methyl-7-(1-methyl-1H-pyrazol-4-yl)-2,3-dihydropyrido[3,4-b]pyrazin-4(1H)-yl)-1,6-naphthyridin-2(1H)-one]"
19,< 2000,COc1cc(N2CC(C)N(C)c3cc(-c4cnn(C)c4)c(C#N)cc32)c2cc(C)c(=O)n(C)c2c1 (stereo not drawn) [Example 13]
20,< 2000,COc1cc(N2CCN(C)c3cc(-n4cc(C)cn4)c(C#N)cc32)c2cc(C)c(=O)n(C)c2c1 [Example 10]
21,< 2000,COc1cc(N2CCN(C)c3cc(N4CCC(C)(N)CC4)c(C#N)cc32)c2cc(C)c(=O)n(C)c2c1 [Example 29]

row,IC50 [nM],SMILES
1,> 5000,"COc1cc(N2CCN(C)c3cc(N4CCC(C(=O)NCCO)CC4)c(C#N)cc32)c2cc(C)c(=O)n(C)c2c1 [Example 59, 1-(7-Cyano-1-(7-methoxy-1,3-dimethyl-2-oxo-1,2-dihydroquinolin-5-yl)-4-methyl-1,2,3,4-tetrahydroquinoxalin-6-yl)-N-(2-hydroxyethyl)piperidine-4-carboxamide]"
2,< 2000,CNC(=O)c1ccc2c(c1)N(c1cc(OC)cc3c1cc(C)c(=O)n3C)CCN2C [Example 81]
3,< 2000,Cc1cc2c(N3CCN(C)c4cc(-c5cnn(C)c5)c(C#N)cc43)cncc2n(C)c1=O [Example 53]
4,< 2000,Cc1cc2c(N3CCCc4cc(-c5cnn(C)c5)ncc43)cc(N3C[C@H]4C[C@@H]3CO4)cc2n(C)c1=O [Example 168]
5,< 2000,COc1cc(N2CCN(C)c3cc(-c4ccnn4C)c(C#N)cc32)c2cc(C)c(=O)n(C)c2c1 [Example 9]
6,< 2000,Cc1cc2c(N3CCN(C)c4cc(-c5cnn(C)c5)c(C#N)cc43)cc(OC3COC3)cc2n(C)c1=O [Example 40]
7,< 2000,COc1cc(N2CCN(C)c3cc(-c4c(C)nn(C)c4C)c(C#N)cc32)c2cc(C)c(=O)n(C)c2c1 [Example 12]
8,> 5000,COc1cc(N2CCN(C)c3cc(-c4cnn(C)c4)c(S(=O)(=O)NC(C)=O)cc32)c2cc(C)c(=O)n(C)c2c1 [Example 108]
9,< 2000,Cc1cc2c(N3CCN(C)c4cc(-c5cnn(C)c5)c(C#N)cc43)cc(OCCN3CCOCC3)cc2n(C)c1=O [Example 36]
10,< 2000,"Cc1cc2c(N3CCN(C)c4cc(-c5cnn(C)c5)c(C#N)cc43)cc(OCC(=O)O)cc2n(C)c1=O [Example 71, 2-((5-(7-Cyano-4-methyl-6-(1-methyl-1H-pyrazol-4-yl)-3,4-dihydroquinoxalin-1(2H)-yl)-1,3-dimethyl-2-oxo-1,2-dihydroquinolin-7-yl)oxy)acetic acid]"
11,< 2000,COc1cc(N2CCN(C)c3cc(-c4cnn(C)c4)c(F)cc32)c2cc(C)c(=O)n(C)c2c1 [Example 30]
12,< 2000,COc1cc(N2CCN(C)c3cc(-c4cccnc4)c(C#N)cc32)c2cc(C)c(=O)n(C)c2c1 [Example 15]
13,< 2000,"CC(=O)N1CCN(c2cc3c(cc2C(F)F)N(c2cc(N4CCOCC4)cc4c2cc(C)c(=O)n4C)CCC3)CC1 [Example 174, 6-(4-Acetylpiperazin-1-yl)-7-(difluoromethyl)-1′,3′-dimethyl-7′-morpholino-3,4-dihydro-2H-[1,5′-biquinolin]-2′(1′H)-one]"
14,< 2000,Cc1cc2c(N3CCCc4cc(-c5cnn(C)c5)c(C(F)F)cc43)nc(N3CCC(C)(N)CC3)cc2n(C)c1=O [Example 222]
15,< 2000,"Cc1cc2c(N3CCN(C)c4cc(-c5cnn(C)c5)c(C#N)cc43)cccc2[nH]c1=O [Example 2, 1-methyl-7-(1-methyl-1H-pyrazol-4-yl)-4-(3-methyl-2-oxo-1,2-dihydroquinolin-5-yl)-1,2,3,4-tetrahydroquinoxaline-6-carbonitrile]"
16,< 2000,COc1cc(N2CCN(C)c3ccc(-c4cnn(C)c4)cc32)c2cc(C)c(=O)n(C)c2c1 [Example 80]
17,> 5000,CNC(=O)c1ccc(-c2ccc3c(c2)CCCN3c2cc(OC)cc3c2cc(C)c(=O)n3C)cn1 [Example 186]
18,< 2000,COc1cc(N2CCN(C)c3cc(-c4cnn(C)c4)c(C#N)cc32)c2cc(C)c(=O)[nH]c2c1 [Example 7]
19,< 2000,"COc1cc(N2CCN(C(C)=O)c3cc(-c4cnn(C)c4)c(C#N)cc32)c2cc(C)c(=O)n(C)c2c1 [Example 63, 1-acetyl-4-(7-methoxy-1,3-dimethyl-2-oxo-1,2-dihydroquinolin-5-yl)-7-(1-methyl-1H-pyrazol-4-yl)-1,2,3,4-tetrahydroquinoxaline-6-carbonitrile]"
20,< 2000,COc1cc(N2CCN(C)c3cc(-c4cnc(O)nc4)c(C#N)cc32)c2cc(C)c(=O)n(C)c2c1 [Example 16]
